Experimental data from the supplement of paper PMC3334620.
In all, about 33,000 sequences were measured (“E-score (-0.5 to 0.5)”: median about -0.012, highest 2% from about 0.27 on). This is one part of the list.

target: T1, Vhr1 (UniProt P40522); test: PBM E-score (8-mer binding enrichment) (E-score (-0.5 to 0.5)); higher = stronger / more preferred TF binding; most listed sequences are background and not binding sites; conditions: protein concentration: 200 nM; construct: GST-full length
T1 sequence: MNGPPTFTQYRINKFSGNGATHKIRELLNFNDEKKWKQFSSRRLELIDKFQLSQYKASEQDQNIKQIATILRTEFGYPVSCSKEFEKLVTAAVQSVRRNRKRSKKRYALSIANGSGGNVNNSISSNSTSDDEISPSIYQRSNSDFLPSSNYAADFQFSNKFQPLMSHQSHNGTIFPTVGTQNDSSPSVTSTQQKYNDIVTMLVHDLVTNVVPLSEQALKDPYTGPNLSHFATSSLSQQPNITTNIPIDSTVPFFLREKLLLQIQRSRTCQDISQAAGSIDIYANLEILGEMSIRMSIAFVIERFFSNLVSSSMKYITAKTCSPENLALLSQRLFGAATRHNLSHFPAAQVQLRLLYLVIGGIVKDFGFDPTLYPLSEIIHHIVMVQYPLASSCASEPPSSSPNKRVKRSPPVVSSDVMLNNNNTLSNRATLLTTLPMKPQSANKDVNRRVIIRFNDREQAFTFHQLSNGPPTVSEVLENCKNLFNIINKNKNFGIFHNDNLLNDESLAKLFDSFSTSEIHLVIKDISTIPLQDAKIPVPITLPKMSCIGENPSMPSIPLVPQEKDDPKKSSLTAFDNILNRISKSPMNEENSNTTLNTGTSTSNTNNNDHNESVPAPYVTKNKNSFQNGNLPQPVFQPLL
Experimental: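 Universal 'all 10-mer' protein binding microarrays (Agilent AMADID 015681) probed with GST-tagged S. cerevisiae TFs (full-length or DBD) made by in vitro transcription/translation (PURExpress), about 100-200 nM. Bound TF was detected with fluorescent anti-GST. Each ungapped 8-mer (which stands for itself and its reverse complement) is scored by the PBM enrichment score (E-score), a modified Wilcoxon-Mann-Whitney statistic from -0.5 to +0.5, computed with the Universal PBM Analysis Suite. Scale: above 0.35 generally sequence-specific binding.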

Row | Sequence | PBM E-score
1 | AAAGAATC | -0.0736
2 | GAATGAGA | -0.0378
3 | AGCATGGG | 0.0586
4 | GAAAAGTA | -0.214
5 | AATGTGCA | 0.00473
6 | TTGCGAAA | -0.0287
7 | AAGTTTCC | -0.155
8 | AAGCAAGC | -0.0171
9 | AGTGAGCG | -0.093
10 | GTAAATAC | -0.118
11 | GGAGTGCA | 0.14
12 | CATCCTCG | 0.124
13 | AGCGTTCC | -0.25
14 | GATTAATC | 0.161
15 | CTATTGAG | 0.264
16 | CTGGTCCC | -0.123
17 | CCAACGAG | -0.0488
18 | AACTATTA | 0.0476
19 | ACTTAATG | 0.0392
20 | ATATTATG | 0.324
21 | GTCGCTAA | 0.0364
22 | ATATGCAA | -0.0627

Row | Sequence | PBM E-score
23 | AGGGCTCG | -0.079
24 | AAGAAATG | 0.0307
25 | CCTCACCA | -0.00516
26 | ACCGAGGG | -0.193
27 | AAGTGGTA | -0.0867
28 | ATTTTTGA | -0.212
29 | CTACTCTA | 0.0199
30 | CGATTAAA | -0.0467
31 | GATCTGAC | 0.148
32 | ATTTGGTA | 0.163
33 | CCCGGGTC | 0.0813
34 | AGCGCGGC | -0.00462
35 | CGGGTAAA | 0.119
36 | ACGCATCT | 0.0947
37 | GCATGTCC | -0.0226
38 | CAGTCGCA | 0.0715
39 | TGTAGACA | 0.109
40 | CATGATAA | 0.108
41 | CGGCTCAG | 0.197
42 | CTGTTCTA | -0.0435
43 | ACGCATAG | 0.00357
44 | CTCGGAAC | -0.0788

Row | Sequence | PBM E-score
45 | ATCGTGTA | 0.0348
46 | CTGCCACC | -0.0905
47 | ACAAGCGC | -0.0276
48 | ACCGAATC | -0.0188
49 | TTTCGAAA | -0.309
50 | AGGTACTG | -0.0757
51 | GGGACCAC | 0.134
52 | ATTAGACA | -0.0949
53 | ACGGAGAT | -0.0922
54 | AGCCGATG | 0.0352
55 | AAATTAAC | -0.00361
56 | CACACCTA | 0.14
57 | CGGGGCCA | 0.0148
58 | ACTGGCAT | 0.0495
59 | CAATTATG | -0.0832
60 | ACGCATAT | 0.09
61 | CCTCGTTC | -0.062
62 | TATTACGA | 0.0546
63 | ATATTGAT | 0.155
64 | AATCCCAA | -0.21
65 | ATCAAACA | 0.186
66 | ACACTTCT | -0.00042

Row | Sequence | PBM E-score
67 | AGGGCGGC | -0.147
68 | ATTGATAG | -0.0457
69 | CCATATAC | 0.145
70 | CAGCAGTC | 0.0874
71 | ATATAACA | 0.124
72 | CTATGAAA | -0.0617
73 | TACAACAA | 0.113
74 | CGCTGAGA | -0.0877
75 | TGCGTACA | 0.0334
76 | ACTGTCCG | 0.0325
77 | CTGTGGTA | 0.0391
78 | AACCTTAC | 0.0697
79 | GCCAGAAA | 0.00743
80 | GTTCATAA | 0.11
81 | GTCTGTTA | 0.121
82 | AATCTACC | -0.0187
83 | GACACCTA | 0.00679
84 | ACAAGAAT | -0.152
85 | CAGAGCAG | 0.0312
86 | ACGGCCCG | 0.00779
